# The list shows a part of the results.
# B1: ENSG00000124766:be:win_251|CDS|ENSG00000124766|bound_else_gene|NA|bound_elsewhere_windowed (ssRNA)
# RNA: GGGAGUUCUACAGUCCGACGAUCUGCACAACGCCGAGAUCUCCAAGCGGCUGGGCAAACGCUGGAAGCUGCUCAAAGACAGCGACAAGAUCCCUUUCAUUCGAGAGGCGGAGCGGCUGCGCCUCAAGCACAUGGCUGACUACCCAACAGAGGAUUGAGCAUCA
# B2: chr5:103210461:103210562:+|3pUTR|ENSG00000145725|unk|total|mutant (ssRNA)
# RNA: GGGAGUUCUACAGUCCGACGAUCGAAUAAGGAGCUGGGAGAAAGGAGACCUGGGUAUUAAUCUCAGCUCUACCACUACAUGGCCGAGCUAUGCCGUGGCCGACUAUCUGGGAGACUCCCGAAUCUUUACCAUUCCCUCUACUACAACAGAGGAUUGAGCAUCA
# B3: ENSG00000039319:stop:overlap|stop_codon|ENSG00000039319|stop_codon|NA|stop_codon (ssRNA)
# RNA: GGGAGUUCUACAGUCCGACGAUCCCAACUCUAGUUUACCAUUAGAAAUAGAAUUAGUGUUUUUCAUUAUAGAACAUCUUUUUUAGUGAAAGAAUGUGCCAUAUUACAUAUUGCAACCUAAUUUGUUAAAACUAACUCCAGCACCAACAGAGGAUUGAGCAUCA
# B4: chr5:83942588:83942842:-|3pUTR|ENSG00000164176|msi1|total|mutant (ssRNA)
# RNA: GGGAGUUCUACAGUCCGACGAUCUUUUCUAAUUGAAUUUCCUAUCCGUUGACUAAAAGAAGUGUCAUGUUUACUCAUAUAUGCCGAACAUGACUGCCUAUCAGCCGAUUGAUCUGUAUUUAAUAUUCGUUAAUUAAAUCUGCACAACAGAGGAUUGAGCAUCA
# B5: chr7:135928980:135929074:-|3pUTR|ENSG00000105887|msi1_unk|FALSE|overlapping (ssRNA)
# RNA: GGGAGUUCUACAGUCCGACGAUCUAAAAAUAGAAUCAUAGCCAUAAGCCUGUUAGUAUCAUAUGAAGAGAGAACAGUUAUCUUAGUACCUAUGGAUUUUCUUUAUUUGCUGUUUGAAUGGAUUGACCUUGGUUAUGUGUUGAGCAACAGAGGAUUGAGCAUCA
# B6: chr7:66987971:66988072:-|3pUTR|ENSG00000126524|unk|total|mutant (ssRNA)
# RNA: GGGAGUUCUACAGUCCGACGAUCAAGUUACUUGAGGCAGCUCUUGUGGGUGAAAAGUUAUUUGUACAGCCGAGUAAGAUUAUCCGGGGUAUGUCUAUACAACAAAAGGGGGGGUCUUUCCUAAAAAAGAAAACAUAUGAUGCUCAACAGAGGAUUGAGCAUCA
# B7: chr1:965281:965395:+|3pUTR|ENSG00000187961|unk|FALSE|unique (ssRNA)
# RNA: GGGAGUUCUACAGUCCGACGAUCCCAUCCGUUCACGUCUCUGCAUCCAUUCCUUCAUGUCUUUAUUUAGUUGUUUAUUUAUUUAGUUAUUUAUCUUAUUUAUUGAGGGGUGAGGAGUGCCACGGCUGCCCGUUUACACCUUUACAACAGAGGAUUGAGCAUCA
# B8: chr7:130166276:130166377:-|3pUTR|ENSG00000146842|msi1|total|mutant (ssRNA)
# RNA: GGGAGUUCUACAGUCCGACGAUCUCUCUGAGCCACUGACUCUUCUGAAAUAAAAUACACAUGGGUGUAUGUUACAGACUCUUCCGAUUUAACAGAAAAUGCCGCUGUUAUGAAAUGUAAUUGUAAAAAUAUGUCCCGUAUCUUCAACAGAGGAUUGAGCAUCA
# B9: ENSG00000107863:be:win_151|CDS|ENSG00000107863|bound_else_gene|NA|bound_elsewhere_windowed (ssRNA)
# RNA: GGGAGUUCUACAGUCCGACGAUCGUUACGUUGAAAAGAACAUCUCAAGGCUUUGGUUUUACAUUAAGACAUUUUAUUGUUUAUCCCCCAGAGUCUGCAAUUCAAUUUUCAUAUAAGGAUGAAGAAAAUGGAAACAGAGGAGGACAACAGAGGAUUGAGCAUCA
# B10: chr15:97973610:97973711:+|3pUTR|ENSG00000140450|unk|total|mutant (ssRNA)
# RNA: GGGAGUUCUACAGUCCGACGAUCGGUGCACAAAAUCCUUCUGUGGGCAAAACUUUGUUUUUGUUUUGCACAGUAAGAAACAACCGGCAAGCGUUAUGUUUUUGGUAAGUUAACUAUGAAAGCUUUCUUAUUUUUAUUAUUAAACAACAGAGGAUUGAGCAUCA
# B11: chr11:88113250:88114123:-|three_prime_utr|ENSG00000123892|control|control|control (ssRNA)
# RNA: GGGAGUUCUACAGUCCGACGAUCUCGUGAAGCCCCAUCUCACAUCAACCAAGGUUGCCAGCUGCUCUGGCUGUGCCAAAUCCUAGUAGGCACCUUUGCUGGUGUCUGGUAGGAAUGACCUCAUUGUUCCACAAAUUGUGCCUCCAACAGAGGAUUGAGCAUCA
# B12: chr11:35619468:35619569:+|CDS|ENSG00000179431|unk|total|mutant (ssRNA)
# RNA: GGGAGUUCUACAGUCCGACGAUCCCCCCUCCGGGAUGCCGGGGGUGAGCUGGCCAACCUCAGCCAGGCGGAGCUGGUGGACCCCGUACAAUGGACCGACUUAAUCCUUUUCGACUACCUGACGGCCAACUUCGACCGGCUCGUCAACAGAGGAUUGAGCAUCA
# B13: chrX:71101288:71101389:+|CDS|ENSG00000184481|unk|total|mutant (ssRNA)
# RNA: GGGAGUUCUACAGUCCGACGAUCGGAGGCCCUGCUCACCUCUGAUACGCCACCACCCCCUGCUGACGUCCUCAUGACCCAGGCCGAUCCCAUUCUGUCCCAGGCUCCGACUCUUCUGUUGCUGGGGGGGCUUCCUUCCUCCAGCAACAGAGGAUUGAGCAUCA
# B14: chr3:45082276:45085637:-|three_prime_utr|ENSG00000163814|control|control|control (ssRNA)
# RNA: GGGAGUUCUACAGUCCGACGAUCAUUGAAAAUGAUGAAUUCCAAUCUGGAUACAGUCAUGACAGCUCAUGUGCUCCUCAACUUAGGCUGUGCGGUUAGCCAGCCUGUAAUGAGAGGAGAGAGGCCUGAGUCACCUAGCAUAGGCAACAGAGGAUUGAGCAUCA
# Target: MSI1 full-length (mouse, UniProt Q61474 1-362)
# Sequence of UniProt Q61474 (Q61474 whole entry): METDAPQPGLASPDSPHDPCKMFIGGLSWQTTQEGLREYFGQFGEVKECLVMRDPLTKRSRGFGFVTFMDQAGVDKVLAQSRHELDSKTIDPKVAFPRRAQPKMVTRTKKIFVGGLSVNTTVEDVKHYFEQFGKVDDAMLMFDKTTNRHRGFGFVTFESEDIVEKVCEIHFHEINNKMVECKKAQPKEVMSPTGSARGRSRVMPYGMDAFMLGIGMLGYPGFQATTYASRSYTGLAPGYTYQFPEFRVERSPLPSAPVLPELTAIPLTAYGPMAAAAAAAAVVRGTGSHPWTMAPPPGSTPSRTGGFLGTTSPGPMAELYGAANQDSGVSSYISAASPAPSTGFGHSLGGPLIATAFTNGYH
# Assay: nsRBNS (natural sequence RNA bind-n-seq); RBNS binding buffer (assumed for nsRBNS): 25 mM Tris pH 7.5, 150 mM KCl, 3 mM MgCl2, 0.01% Triton X-100, 500 ug/ml BSA, 20 U/ml SUPERase-In, 4 C; UNK is unkempt and MSI1 is Musashi-1; names of the RNAs are library labels; protein concentration not given here; high values mean tight binding
row,Binder,binding signal [enrichment R]
1,B1,0.383
2,B2,0.459
3,B3,0.848
4,B4,0.411
5,B5,1.99
6,B6,0.484
7,B7,64.6
8,B8,0.352
9,B9,0.542
10,B10,1.02
11,B11,0.357
12,B12,0.329
13,B13,0.433
14,B14,0.366

# Reference: publication PMC12136788
